Experimental data reported in the antibiotic and cytotoxicity screens of Wong et al. (2023).
This is one part of the list.

Legend:
HSkMC = human skeletal muscle cells; assay: cytotoxicity call (relative viability < 0.9); details: 10 µM
HepG2 = assay: cytotoxicity call (relative viability < 0.9); details: 10 µM
S. aureus RN4220 = assay: growth inhibition call (relative growth <= 0.2); details: 50 µM

Row | Structure (SMILES) | cytotoxicity call (HSkMC) | cytotoxicity call (HepG2) | growth inhibition call (S. aureus RN4220)
1 | COc1ccc(S(=O)(=O)N(C)C[C@H]2Oc3ccc(NS(=O)(=O)c4ccc(C)cc4)cc3C(=O)N([C@@H](C)CO)C[C@H]2C)cc1 | inactive | inactive | inactive
2 | CC(NCCC(c1ccccc1)c1ccccc1)c1ccccc1.Cl (stereo not drawn) | inactive | active | inactive
3 | C[C@H]1CCCCO[C@H](CN(C)S(=O)(=O)c2ccccc2)[C@@H](C)CN([C@@H](C)CO)C(=O)c2cc(NS(=O)(=O)c3ccc(Cl)cc3)ccc2O1 | inactive | inactive | inactive
4 | Cc1cc(C(=O)Nc2cccc3c2O[C@@H](CN(C)S(=O)(=O)c2c(C)noc2C)[C@@H](C)CN([C@@H](C)CO)C3=O)n(C)n1 | inactive | inactive | inactive
5 | CCOC(=O)c1sc(=NN)[nH]c1C | inactive | inactive | inactive
6 | C[C@@H]1CCCCO[C@H](CN(C)C(=O)Cc2ccccc2)[C@H](C)CN([C@@H](C)CO)C(=O)c2cc(NC(=O)C3CCCCC3)ccc2O1 | inactive | inactive | inactive
7 | O=C(NCCCN1CCOCC1)c1cccnc1 | inactive | inactive | inactive
8 | COc1ccc(C#Cc2ccc3c(c2)[C@]2(C(=O)N3)[C@H](C(=O)N3CCc4cc(OC)c(OC)cc4C3)[C@H]3C(=O)O[C@H](c4ccccc4)[C@H](c4ccccc4)N3[C@@H]2c2ccc(OCCO)cc2)cc1 | inactive | inactive | inactive
9 | C[C@@H]1CN([C@H](C)CO)C(=O)Cc2cc(NS(C)(=O)=O)ccc2O[C@@H]1CN(C)S(=O)(=O)c1cccs1 | inactive | inactive | inactive
10 | C[C@@H]1CCCCO[C@H](CN(C)CC2CC2)[C@@H](C)CN([C@H](C)CO)C(=O)c2cc(NC(=O)Nc3ccc(F)cc3)ccc2O1 | inactive | inactive | inactive
11 | Cc1noc(C)c1S(=O)(=O)N(C)C[C@@H]1Oc2ccc(NS(=O)(=O)c3ccc(Cl)cc3)cc2CC(=O)N([C@@H](C)CO)C[C@H]1C | inactive | inactive | inactive
12 | Cc1ccc(S(=O)(=O)Nc2ccc3c(c2)C(=O)N([C@@H](C)CO)C[C@@H](C)[C@H](CN(C)Cc2ccccc2)OCCCC[C@@H](C)O3)cc1 | inactive | inactive | inactive
13 | C[C@@H]1CN([C@@H](C)CO)C(=O)c2cccc(NS(=O)(=O)c3cn(C)cn3)c2O[C@H]1CN(C)C(=O)Nc1ccccc1 | inactive | inactive | inactive
14 | Cc1cc(C(C)(C)CC(C)(C)C)ccc1OCCOCC[N+](C)(C)Cc1ccccc1.[Cl-] | active | active | active
15 | C[C@@H]1CN([C@@H](C)CO)C(=O)c2cc(NC(=O)CCC(F)(F)F)ccc2O[C@@H](C)CCCCO[C@@H]1CN(C)C(=O)Nc1ccc(F)cc1 | inactive | inactive | inactive
16 | NCC[C@@H]1CC[C@@H](NC(=O)c2ccccc2F)[C@H](CO)O1 | inactive | inactive | inactive
17 | O=C([O-])P(=O)([O-])[O-].[Na+].[Na+].[Na+] | inactive | inactive | inactive
18 | C[C@H]1CN([C@@H](C)CO)C(=O)CCCn2cc(nn2)CO[C@H]1CN(C)C(=O)Nc1cccc(C(F)(F)F)c1 | inactive | inactive | inactive
19 | COc1ccc(C#Cc2cnc3c(c2)C(=O)N([C@H](C)CO)C[C@H](C)[C@H](CN(C)S(=O)(=O)c2cccs2)O3)cc1OC | inactive | inactive | inactive
20 | O=c1cc(CO)occ1O | inactive | inactive | inactive
21 | CC(C)CC#Cc1ccc2c(c1)O[C@H](CN(C)C(=O)Cc1cccnc1)[C@@H](C)CN([C@@H](C)CO)S2(=O)=O | inactive | inactive | inactive
22 | C[C@@H]1CN([C@H](C)CO)C(=O)c2cccc(NC(=O)C3CC3)c2O[C@H]1CN(C)Cc1ccc2c(c1)OCO2 | inactive | inactive | inactive
23 | COc1ccc2cc(CCC(C)=O)ccc2c1 | inactive | inactive | inactive
24 | COc1ccc2c3c([nH]c2c1)[C@H](CO)N(C[C@]13CCN(CC1)Cc1ccccc1F)S(=O)(=O)c1cn(cn1)C | inactive | inactive | inactive
25 | COc1ccc([Si](C)(C)[C@H]2[C@H](CC(=O)N(CCO)Cc3ccccc3)O[C@@]3(C(=O)N(Cc4ccc(N5C(=O)c6cccc7cccc5c67)cc4)c4ccccc43)[C@@H]2C)cc1 | inactive | active | inactive
26 | C[C@H](CO)N1C[C@H](C)[C@H](CN(C)S(=O)(=O)c2ccc(F)cc2)OCCCC[C@H](C)Oc2ccc(NC(=O)CCC(F)(F)F)cc2C1=O | inactive | inactive | inactive
